In the supplement of paper PMC9446081:
In all, about 39,000 compounds went through this assay and about 220 (0.56%) showed activity. The list shows a part of the results.

The compounds below were run on Escherichia coli K-12 BW25113 (assay: relative growth (OD600 normalised to plate interquartile mean) (fraction); higher = less growth inhibition, active = 0.2 or less). Conditions: 50 µM; LB; incubation time: overnight (16-24 h).
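Also: static incubation at 37 °C against the wild-type strain, values averaged over two biological replicates.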

Question: For C[C@@H]1CCCCO[C@H](CN(C)C(=O)NC2CCCCC2)[C@H](C)CN([C@H](C)CO)C(=O)c2cc(NS(=O)(=O)c3ccccc3)ccc2O1, which relative growth is on record?
Answer: inactive: 0.993

Question: How did the relative growth turn out when CCS(=O)(=O)Nc1ccc2c(c1)C(=O)N(C)[C@@H]1CC[C@H](CC(=O)NCc3ccccc3F)O[C@H]1CO2 was run?
Answer: inactive: 1.01

Question: Which relative growth does the source give for C[C@H](NC(=O)C[C@H]1CC[C@H](NC(=O)CN2CCOCC2)[C@H](CO)O1)c1ccccc1 here?
Answer: inactive: 0.979

Question: With CNC[C@H]1Oc2ccc(NC(=O)Cn3cnnn3)cc2CC(=O)N([C@H](C)CO)C[C@@H]1C as the compound, how does the relative growth read?
Answer: inactive: 1

Question: Which relative growth does the source give for O=C(O)CCCCC1SCC2NC(=O)NC21 (stereo not drawn) here?
Answer: inactive: 1

Question: How did the relative growth turn out when CO[C@@H]1CN(C)C(=O)c2ccc(NC(=O)Nc3ccccc3Cl)cc2OC[C@@H](C)N(Cc2ccccc2C(=O)O)C[C@H]1C was run?
Answer: inactive: 0.972

Question: Which relative growth does the source give for CCn1c(=O)cc(N2CCC(C)CC2)[nH]c1=O here?
Answer: inactive: 1.02

Question: How did the relative growth turn out when CC(=O)Oc1ccccc1C(=O)Nc1ccccc1 was run?
Answer: inactive: 0.937

Question: How did the relative growth turn out when Cc1noc(C)c1NC(=O)N(C)C[C@H]1Oc2c(NC(=O)c3ccncc3)cccc2C(=O)N([C@H](C)CO)C[C@@H]1C was run?
Answer: inactive: 0.989

Question: How did the relative growth turn out when CO[C@@H]1CN(C)C(=O)c2cc(NC(=O)c3ccccc3)ccc2OC[C@@H](C)N(C(=O)CN(C)C)C[C@@H]1C was run?
Answer: inactive: 0.926

Question: How did the relative growth turn out when COc1cc(NS(=O)(=O)c2ccc(N)cc2)nc(OC)n1 was run?
Answer: inactive: 1.15

Question: How did the relative growth turn out when C[C@@H]1CN([C@H](C)CO)C(=O)c2cc(C#Cc3ccccc3)cnc2O[C@@H]1CN(C)S(=O)(=O)c1ccccc1F was run?
Answer: inactive: 1.03

Question: With C[C@@H]1CN([C@H](C)CO)C(=O)c2ccccc2-c2ccccc2CO[C@@H]1CN(C)Cc1cccc2c1OCCCO2 as the compound, how does the relative growth read?
Answer: inactive: 1.01

Question: For C[C@H]1CCCCO[C@@H](CN(C)C(=O)Nc2cccc3ccccc23)[C@@H](C)CN([C@@H](C)CO)C(=O)c2cc(NS(=O)(=O)c3ccc(F)cc3)ccc2O1, which relative growth is on record?
Answer: inactive: 1

Question: Which relative growth does the source give for O=C(C[C@H]1CC[C@H]2[C@@H](COC[C@@H](O)CN2Cc2cc(F)ccc2F)O1)N[C@@H]1CCN(Cc2ccccc2)C1 here?
Answer: inactive: 1.01

Question: Which relative growth does the source give for C[C@@H]1CCCCO[C@@H](CN(C)C(=O)C2CCCCC2)[C@H](C)CN([C@@H](C)CO)C(=O)c2cc(NC(=O)Nc3ccccc3)ccc2O1 here?
Answer: inactive: 1.03

Question: With CCCC#Cc1cnc2c(c1)C(=O)N([C@@H](C)CO)C[C@@H](C)[C@H](CN(C)S(=O)(=O)c1cccc(OC)c1)O2 as the compound, how does the relative growth read?
Answer: inactive: 1.08

Question: COCC#Cc1ccc([C@H]2[C@H](CO)N3C(=O)CN(C(=O)c4ccncc4)C[C@@H]23)cc1 was tested. Which relative growth did it give?
Answer: inactive: 0.987

Question: C[C@H](CO)N1C[C@H](C)[C@@H](CN(C)S(C)(=O)=O)Oc2c(cccc2N(C)C)C1=O was tested. Which relative growth did it give?
Answer: inactive: 1.01

Question: Which relative growth does the source give for CC(C)NC(=O)N(C)C[C@@H]1Oc2ccc(NC(=O)CCCN(C)C)cc2C(=O)N([C@H](C)CO)C[C@H]1C here?
Answer: inactive: 1.02

Question: How did the relative growth turn out when COc1ccc(cc1)NC(=O)N1C[C@]2(C1)CN([C@@H](CO)c1[nH]c3cc(ccc3c12)OC)C(=O)CN1CCOCC1 was run?
Answer: inactive: 0.981

Question: For CCN(CCO)C(=O)C1CN(C(C)=O)C1, which relative growth is on record?
Answer: inactive: 1.01

Question: Which relative growth does the source give for C[C@@H]1CN([C@@H](C)CO)C(=O)c2cc(NC(=O)CCCN(C)C)ccc2O[C@@H]1CN(C)S(=O)(=O)c1cn(C)cn1 here?
Answer: inactive: 0.978

Question: Which relative growth does the source give for COc1ccc(CNC(=O)N(C)C[C@H]2OCc3ccccc3-c3c(n(C)c4ccccc34)C(=O)N([C@H](C)CO)C[C@H]2C)cc1 here?
Answer: inactive: 1.01

Question: C[C@@H](Sc1nc(N)cc(N)n1)C(=O)O was tested. Which relative growth did it give?
Answer: inactive: 0.986

Question: How did the relative growth turn out when O=C(NCCN1CCCC1)[C@@H]1[C@@H](CO)[C@@H]2Cn3c(cccc3=O)[C@@H]2N1C(=O)c1ccccc1 was run?
Answer: inactive: 1.02

Question: C[C@H](CO)N1C[C@H](C)[C@H](CN(C)C(=O)Cc2ccccc2)OCCCC[C@H](C)Oc2ccc(NC(=O)NC3CCCCC3)cc2C1=O was tested. Which relative growth did it give?
Answer: inactive: 1.01

Question: How did the relative growth turn out when C=C1C(CO)C(O)CC1n1cnc2c(=O)[nH]c(N)nc21.O (stereo not drawn) was run?
Answer: inactive: 0.816

Question: With C[C@H](CO)N1C[C@H](C)[C@@H](CN(C)Cc2ccncc2)Oc2c(NC(=O)Nc3ccc(C(F)(F)F)cc3)cccc2C1=O as the compound, how does the relative growth read?
Answer: inactive: 0.981

Question: For COc1ccc(CN(C)C[C@@H]2Oc3ccc(NS(C)(=O)=O)cc3C(=O)N([C@@H](C)CO)C[C@H]2C)cc1, which relative growth is on record?
Answer: inactive: 1.01

Question: C[C@H](CO)N1C[C@H](C)[C@H](CN(C)Cc2ccc(C(F)(F)F)cc2)Oc2ccc(NS(=O)(=O)c3ccc(Cl)cc3)cc2CC1=O was tested. Which relative growth did it give?
Answer: inactive: 1.03

Question: Which relative growth does the source give for COc1ccc(S(=O)(=O)N(C)C[C@@H]2Oc3c(NC(=O)Nc4c(C)noc4C)cccc3C(=O)N([C@H](C)CO)C[C@H]2C)cc1 here?
Answer: inactive: 1.03

Question: With COc1ccc(S(=O)(=O)N(C)C[C@@H]2OCCCC[C@@H](C)Oc3ccc(NC(=O)CCC(F)(F)F)cc3C(=O)N([C@H](C)CO)C[C@H]2C)cc1 as the compound, how does the relative growth read?
Answer: inactive: 1.02

Question: With CC(C)NC(=O)N(C)C[C@@H]1Oc2cc(C#Cc3cccc(F)c3)ccc2S(=O)(=O)N([C@@H](C)CO)C[C@H]1C as the compound, how does the relative growth read?
Answer: inactive: 1.02

Question: COCC(=O)N(C)C[C@H]1Oc2cc(C#C[C@H](C)O)ccc2S(=O)(=O)N([C@@H](C)CO)C[C@@H]1C was tested. Which relative growth did it give?
Answer: inactive: 0.999

Question: For Cc1noc(C)c1NC(=O)Nc1cccc2c1O[C@@H](CN(C)Cc1ccc(C(F)(F)F)cc1)[C@H](C)CN([C@H](C)CO)C2=O, which relative growth is on record?
Answer: inactive: 0.977

Question: Which relative growth does the source give for C[C@@H]1CN([C@@H](C)CO)C(=O)Cc2cc(N(C)C)ccc2O[C@H]1CN(C)S(=O)(=O)c1ccc(Cl)cc1 here?
Answer: inactive: 0.994

Question: For N#C[C@H]1N[C@H](CO)[C@H]1c1ccccc1, which relative growth is on record?
Answer: inactive: 1.01

Question: For COc1ccc(NC(=O)N(C)C[C@@H]2Oc3c(NC(=O)CCCCCC(=O)Nc4ccccc4N)cccc3C(=O)N([C@@H](C)CO)C[C@@H]2C)cc1, which relative growth is on record?
Answer: inactive: 1.01

Question: CN1[C@@H]2c3ccc(-c4ccccc4)c(=O)n3C[C@H]1[C@H](CO)[C@H]2C(=O)NCCCN1CCOCC1 was tested. Which relative growth did it give?
Answer: inactive: 1.02

Question: For C[C@H](CO)N1C[C@H](C)[C@H](CN(C)C(=O)Nc2cccc3ccccc23)OCCCC[C@H](C)Oc2ccc(NC(=O)Nc3ccc(C(F)(F)F)cc3)cc2C1=O, which relative growth is on record?
Answer: inactive: 1.06

Question: Which relative growth does the source give for C[C@@H]1CN([C@H](C)CO)C(=O)Cc2cc(NC(=O)Nc3cccc4ccccc34)ccc2O[C@H]1CN(C)Cc1ccc(C(F)(F)F)cc1 here?
Answer: inactive: 1.02

Question: C[C@@H]1CN([C@H](C)CO)C(=O)c2cc(NC(=O)Nc3ccc(C(F)(F)F)cc3)ccc2O[C@@H](C)CCCCO[C@@H]1CN(C)Cc1ccncc1 was tested. Which relative growth did it give?
Answer: inactive: 1.02

Question: With COc1ccc(C#Cc2cnc3c(c2)C(=O)N([C@H](C)CO)C[C@H](C)[C@H](CN(C)S(=O)(=O)c2ccc(F)cc2)O3)cc1OC as the compound, how does the relative growth read?
Answer: inactive: 1.02

Question: Which relative growth does the source give for COc1cccc(OC)c1C(=O)NCCCO here?
Answer: inactive: 0.994

Question: How did the relative growth turn out when COC(=O)C[C@@H]1CC[C@@H]2[C@H](COC[C@@H](O)CN2S(=O)(=O)c2ccccc2C)O1 was run?
Answer: inactive: 1

Question: With CCCNC(=O)N(C)C[C@@H]1Oc2ncc(-c3ccc(C(=O)N(C)C)cc3)cc2C(=O)N([C@@H](C)CO)C[C@H]1C as the compound, how does the relative growth read?
Answer: inactive: 0.999

Question: How did the relative growth turn out when CS(=O)(=O)N1CCN(C[C@@H](O)C2CC2)CC1 was run?
Answer: inactive: 1.01

Question: With Cc1ccc(S(=O)(=O)N(C)C[C@H]2Oc3ccc(NC(=O)c4ccncc4)cc3CC(=O)N([C@H](C)CO)C[C@H]2C)cc1 as the compound, how does the relative growth read?
Answer: inactive: 0.974

Question: Which relative growth does the source give for CC(C)CN1C[C@@H]2CCNCC[C@H]2S1(=O)=O here?
Answer: inactive: 0.958

Question: How did the relative growth turn out when C[C@@H]1CCCCO[C@@H](CN(C)Cc2ccc(Cl)c(Cl)c2)[C@@H](C)CN([C@@H](C)CO)C(=O)c2cc(NC(=O)Nc3ccccc3)ccc2O1 was run?
Answer: inactive: 1.02

Question: For COc1ccc(S(=O)(=O)Nc2ccc3c(c2)C(=O)N([C@@H](C)CO)C[C@H](C)[C@@H](CN(C)C(=O)c2ccccc2)OCCCC[C@H](C)O3)cc1, which relative growth is on record?
Answer: inactive: 1.01

Question: How did the relative growth turn out when COc1cccc(NC(=O)N(C)C[C@@H]2Oc3ncc(C#Cc4ccncc4)cc3C(=O)N([C@H](C)CO)C[C@@H]2C)c1 was run?
Answer: inactive: 1.01

Question: How did the relative growth turn out when C[C@H](CO)N1C[C@H](C)[C@H](CN(C)C(=O)CCC(F)(F)F)OCCCC[C@H](C)Oc2ccc(NC(=O)C3CCCCC3)cc2C1=O was run?
Answer: inactive: 0.995

Question: Which relative growth does the source give for C[C@@H]1CCCCO[C@H](CN(C)Cc2ccc(C(F)(F)F)cc2)[C@H](C)CN([C@H](C)CO)C(=O)c2cc(NS(=O)(=O)c3ccc(F)cc3)ccc2O1 here?
Answer: inactive: 1.02

Question: Which relative growth does the source give for C[C@@H]1CN([C@H](C)CO)S(=O)(=O)c2ccc(C#C[C@@H](C)O)cc2O[C@H]1CN(C)C(=O)CN(C)C here?
Answer: inactive: 1.02

Question: For C[C@H](CO)N1C[C@H](C)[C@H](CN(C)Cc2ccc(Oc3ccccc3)cc2)Oc2ccc(NS(=O)(=O)c3ccccc3)cc2C1=O, which relative growth is on record?
Answer: inactive: 0.984

Question: How did the relative growth turn out when O=C(O)c1ccc(N[C@@H]2OC[C@H](O)[C@@H](O)[C@@H]2O)cc1 was run?
Answer: inactive: 1.05

Question: For Cc1noc(C)c1NC(=O)Nc1ccc2c(c1)C(=O)N([C@H](C)CO)C[C@@H](C)[C@H](CN(C)C(=O)Nc1ccc3c(c1)OCO3)OCCCC[C@@H](C)O2, which relative growth is on record?
Answer: inactive: 1.03

Question: C[C@@H]1CN([C@@H](C)CO)C(=O)c2cccc(NC(=O)Nc3ccc(C(F)(F)F)cc3)c2O[C@@H]1CN(C)C(=O)NC1CCCCC1 was tested. Which relative growth did it give?
Answer: inactive: 0.978

Question: Which relative growth does the source give for O=C(Cc1ccncc1)NCC[C@@H]1CC[C@@H](NC(=O)C2CCOCC2)[C@@H](CO)O1 here?
Answer: inactive: 0.994

Question: With Nc1nc(C(=CCC(=O)O)C(=O)NC2C(=O)N3C(C(=O)O)=CCSC23)cs1 (stereo not drawn) as the compound, how does the relative growth read?
Answer: active: 0.0485

Question: C[C@@H]1CN([C@H](C)CO)C(=O)Cc2cc(NS(C)(=O)=O)ccc2O[C@@H]1CN(C)C(=O)Nc1ccccc1 was tested. Which relative growth did it give?
Answer: inactive: 0.986
